# About 230 (0.21%) of roughly 110,000 compounds showed an effect of 50% or more. The list shows a part of the results.
# Target: DPAP1 (Plasmodium falciparum, UniProt Q8IIJ9)
# Assay: primary screen, percent inhibition; read by cleavage of a fluorogenic dipeptide substrate; higher = more effect of the substance
# Parameters: species or system P. falciparum D10 trophozoite lysates; single well
# 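Further: 30 min substrate incubation versus DMSO and 10 µM JCP410 controls.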
# DPAP1, sequence (Q8IIJ9 whole entry, looked up): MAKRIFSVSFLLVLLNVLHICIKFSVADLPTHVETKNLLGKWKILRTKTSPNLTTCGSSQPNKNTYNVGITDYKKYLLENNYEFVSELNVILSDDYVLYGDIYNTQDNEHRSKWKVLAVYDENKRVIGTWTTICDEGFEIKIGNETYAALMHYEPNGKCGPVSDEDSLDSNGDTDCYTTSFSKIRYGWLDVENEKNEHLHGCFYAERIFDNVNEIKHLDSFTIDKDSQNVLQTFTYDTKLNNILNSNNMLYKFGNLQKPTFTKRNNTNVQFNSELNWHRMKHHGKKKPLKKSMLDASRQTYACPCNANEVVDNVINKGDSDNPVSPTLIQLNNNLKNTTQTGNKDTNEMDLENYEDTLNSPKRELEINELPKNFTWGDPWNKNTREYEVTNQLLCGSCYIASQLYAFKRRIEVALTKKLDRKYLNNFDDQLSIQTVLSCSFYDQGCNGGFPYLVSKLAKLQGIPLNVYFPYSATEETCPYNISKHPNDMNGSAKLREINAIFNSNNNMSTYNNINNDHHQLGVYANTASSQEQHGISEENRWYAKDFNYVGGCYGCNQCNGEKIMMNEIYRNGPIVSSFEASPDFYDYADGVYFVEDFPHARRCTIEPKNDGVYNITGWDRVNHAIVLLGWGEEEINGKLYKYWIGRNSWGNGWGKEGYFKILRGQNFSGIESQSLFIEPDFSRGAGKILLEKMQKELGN
row,SMILES,% Inhibition @ 10 uM [%]
1,Cc1nc(C)c2c(=O)n(-c3ccccc3)c(=O)[nH]c2n1,-3.66
2,COC(=O)c1ccccc1NC(=O)CCC(=O)O,0.774
3,c1cc(CNC2CCCCC2)ccn1,1.84
4,FC(F)(F)c1ccc(-c2nnc3ccc4ccccc4n23)cc1,2.05
5,Cc1ccc2cc3cc(C(=O)N(C)Cc4ccccc4)sc3nc2c1,0.402
6,O=C(NC1CCCCCCC1)NC1CCCCC1,-5.92
7,O=C(O)C1CCCN(C(=O)c2ccc(-n3ccc4ccccc43)s2)C1 (stereo not drawn),3.24
8,CC(C)c1ccccc1OCC(=O)Nc1nonc1NC(=O)COc1ccccc1C(C)C,-1.82
9,CC(=O)c1c(O)cc(C)o/c1=N\c1ccc2c(c1)OCO2,-4.41
10,COc1ccc(-c2cc(C(=O)NCc3ccncc3)c3ccccc3n2)c(OC)c1,-2.32
11,CCCCCCCCC1CC1(C(=O)O)C(=O)O (stereo not drawn),-2.51
12,Cc1nn(CC(=O)NCCC(C)C)c(=O)c2cc3cc(F)ccc3n12,-0.192
13,CCC1(C)Cc2c(sc3nnn(CC(=O)c4ccc(Cl)cc4)c(=O)c23)CO1 (stereo not drawn),1.32
14,O=C(Cn1ccc2ccccc2c1=O)Nc1nc2ccccc2s1,-4.23
15,CN1CCC(NCc2cccc(Cl)c2)CC1,0.472
16,Cc1ccc(N/C=C2/C(=O)NC(=O)N(c3ccccc3)C2=O)cc1CN1C(=O)c2ccccc2C1=O,4
17,O=C(C1CC1)N1CCN(c2cccc(Cl)c2)CC1,1.88
18,CC(C)N(Cc1nc(-c2ccccc2)no1)C(=O)CC(C)(C)C,-6.89
19,CC(C)(C)c1ccc(S(=O)(=O)Nc2cccc(C(F)(F)F)c2)cc1,-2.03
20,CCCSc1nnc2c(n1)OC(c1cccc(C)n1)Nc1ccccc1-2 (stereo not drawn),4.88
21,Cc1ccc2c(c1)-c1c(cnn1CC(=O)Nc1cccnc1Cl)CO2,-4.34
22,CC(C)(C)C1CC(O)C(C(C)(C)C)CC1=O (stereo not drawn),3.92

row,SMILES,% Inhibition @ 10 uM [%]
1,NC(=O)c1ccc(-n2nnnc2SCc2ccc(C(=O)O)cc2)cc1,3.05
2,Cc1cc(NS(=O)(=O)c2ccc(NC(=O)c3sc4ccccc4c3Cl)cc2)no1,-8.97
3,OC(C#CCN1CCOCC1)c1ccccc1 (stereo not drawn),-2
4,O=C(COCc1cc(-c2ccc(F)cc2)on1)NCc1ccc2c(c1)OCO2,-6.43
5,Fc1ccc(CSc2nnnn2-c2ccc3c(c2)OCO3)cc1,4.66
6,COc1cc(/C=C2/NC(=O)N(CC(=O)Nc3cccc(C)c3)C2=O)ccc1OC(C)C,5.03
7,CCOC(=O)C1=C(CN2CCN(C(=O)OCC)CC2)NC(=O)NC1c1cccs1 (stereo not drawn),-3.36
8,CC1=NNC(=O)C1C(c1ccc(Br)cc1)C(C#N)C#N (stereo not drawn),-2.51
9,COc1ccccc1CCNCc1c(C(=O)O)c(C)n(Cc2cccc(Cl)c2)c1C,-0.23
10,N#CC1=C(N)Oc2cc(O)ccc2C1c1ccc(C(F)(F)F)cc1 (stereo not drawn),-2.81
11,c1ccc2c(c1)nc(-c1cscn1)n2CCCCc1nn[nH]n1,1.72
12,CC(CCc1ccco1)N(C)S(=O)(=O)c1ccc(-c2cc(C(F)(F)F)no2)s1 (stereo not drawn),-1.77
13,c1ccc(-c2cc(-c3ccccc3)nc(-n3cccn3)n2)cc1,0.708
14,COCCCn1c(-c2ccc(Br)cc2)cn2c3c(=O)n(C)c(=O)n(C)c3nc12,4.05
15,OC1CCN(Cc2ccc(Br)cc2)CC1,1.28
16,Cc1cccc(C2=N/C(=C\c3sccc3C)C(=O)O2)c1,2.92
17,CCOc1ccc2nc(N3CCC(C(=O)N4CCC(Cc5ccccc5)CC4)CC3)sc2c1,-1.58
18,CCn1cc(Br)c(C(=O)Nc2c(C)cc(C)cc2C)n1,-4.21
19,COc1ccccc1CNC(=O)CCCn1nc(C)n2c(cc3sccc32)c1=O,9.33
20,CCOc1ccc(NC(=O)C2=C(C)NC(=O)NC2c2cccc(OC)c2)cc1 (stereo not drawn),3.44
21,Cc1ccc(C(=O)N(Cc2ccccc2)C(C)C)cc1,0.526
22,COc1cccc(-c2n[nH]c(O)n2)c1,2.46

row,SMILES,% Inhibition @ 10 uM [%]
1,CCc1ccc(/C=C2/C(=N)N3C(=NC2=O)SN=C3S(C)(=O)=O)cc1,-3.39
2,Clc1ccc(-c2noc(COc3cccc4ccccc34)n2)cc1,-1.6
3,CC1CC(NC(=O)C2C3CCC(C3)C2C(=O)O)CC(C)(C)C1 (stereo not drawn),2.76
4,CCCCOc1ccc(C(=O)NCc2cn3c(C)csc3n2)cc1,-0.72
5,N#Cc1ccc(NC(=O)c2ccc(-c3ccccc3)cc2)cc1,-4.21
6,COc1ccc(C2=Cc3cc(C)c(C#N)c(=O)n3C2)cc1,-4.35
7,Fc1ccc(Cn2nnc3ccccc32)cc1,-6.78
8,CC(Cc1ccccc1F)N1CCN(C/C=C/c2ccccc2)CC1 (stereo not drawn),-7.17
9,CCOc1ccc(-c2cnc(NCc3c(F)cccc3Cl)n2C)cc1,-4.78
10,O=S(=O)(NC(c1ccccc1)c1ccccc1)c1ccc(Cl)cc1,-0.856
11,CCN1C(=O)CC(c2ccc(OC(C)C)cc2)C1=O (stereo not drawn),5.61
12,O=C(CCC(=O)n1ncc2ccc(Cl)cc21)NCc1ccccc1Cl,0.596
13,CCCC(C(=O)NCc1ccccc1Cl)N1Cc2ccccc2C1=O (stereo not drawn),1.34
14,CC(NC(=O)/C=C/c1ccccc1)c1ccccc1 (stereo not drawn),3.8
15,O=C(Nc1ccc(-c2ccc([N+](=O)[O-])cc2)cc1)c1ccco1,5.29
16,CC1=C(C(=O)OCc2ccccc2)C(c2ccc(F)cc2)C(C#N)=C(N)O1 (stereo not drawn),2.54
17,COC(=O)C1=C(C(=O)OC)C2(OC1c1ccccc1C)C(=O)c1ccccc1C2=O (stereo not drawn),-5.51
18,CCC1CCCCN1C(=O)Cn1c(C(=O)OC)cc2sccc21 (stereo not drawn),-6.59
19,Cc1nc2nc(SCC(=O)NCc3ccc(F)cc3)nn2c(C)c1Cc1ccccc1,0.121
20,COc1ccc(-c2coc3cc(OC)ccc3c2=O)c(O)c1,62.1
21,CCN1C/C(=C\c2ccsc2)C(=O)/C(=C/c2ccsc2)C1,0.189
22,CCOC(=O)N1CCC(/N=c2\c(O)c(O)\c2=N/C2CCN(Cc3ccccc3)CC2)CC1,-5.05

# — paper PMC6919601, “Identification of Plasmodium dipeptidyl aminopeptidase allosteric inhibitors by high throughput screening” (PLoS ONE, 2019)
